# In all, about 33,000 sequences were measured (“E-score (-0.5 to 0.5)”: median about -0.054, highest 2% from about 0.39 on). The list shows a part of the results.
# Target: Ylr278c (UniProt Q05854)
# Assay: PBM E-score (8-mer binding enrichment) (E-score (-0.5 to 0.5)); higher = stronger / more preferred TF binding; most listed sequences are background and not binding sites
# Settings: protein concentration: 200 nM; construct: GST-DNA-binding domain
# Procedure: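 Universal 'all 10-mer' protein binding microarrays (Agilent AMADID 015681) probed with GST-tagged S. cerevisiae TFs (full-length or DBD) made by in vitro transcription/translation (PURExpress), about 100-200 nM. Bound TF was detected with fluorescent anti-GST. Each ungapped 8-mer (which stands for itself and its reverse complement) is scored by the PBM enrichment score (E-score), a modified Wilcoxon-Mann-Whitney statistic from -0.5 to +0.5, computed with the Universal PBM Analysis Suite. Scale: above 0.35 generally sequence-specific binding.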
row,Sequence,PBM E-score
1,TACCGCGA,0.176
2,GTGAAAGA,-0.0289
3,CTGACCTC,-0.0797
4,AGTAGTTG,-0.00509
5,ATCAGAAG,-0.123
6,AGGCAGCG,-0.0733
7,CACCTCAC,0.0836
8,CTTGTATC,-0.178
9,GCCGGACC,0.376
10,GATGTCCA,-0.0382
11,TGAGTGAA,-0.0748
12,GTAGGGCA,-0.038
13,ATCCCTTG,-0.22
14,CAAGGAAG,-0.0653
15,GAGATACC,0.0878
16,ATCCCACA,-0.156
17,ATTCAGCC,-0.0641
18,ACGGGGTC,0.215
19,ACGGCGCA,0.162
20,CGAAAGAC,0.133
21,GGTGTAAC,0.121
22,CATTAGTC,0.0466
23,ACCGTTGG,-0.056
24,ACATGAGG,-0.224
25,CTTTTACA,0.0358

row,Sequence,PBM E-score
1,GCAGGCCA,-0.171
2,GAATATGA,-0.0336
3,AGGGTCTA,-0.0719
4,GAAAGAGC,-0.0143
5,CCCAAACG,-0.13
6,ATGCACGG,0.175
7,CCCACGGC,0.0615
8,CGCTTCAG,0.0182
9,GCACCTCA,-0.00496
10,CATCTTAA,-0.105
11,CGAGGTAG,-0.0404
12,AACCTGAG,-0.106
13,CTCAACGC,-0.253
14,AAATGACG,-0.0163
15,ACAACCCA,0.0408
16,AGTGCATC,-0.0992
17,AAGGGAGG,-0.049
18,AAGGCGGA,0.379
19,CGTCGACG,0.2
20,GTAGTTGA,-0.0594
21,CATGCGGA,0.317
22,CCAGGATA,-0.177
23,AGTGCACC,0.0387
24,ACACACAG,-0.189
25,ACGTTATA,-0.148

row,Sequence,PBM E-score
1,ATGATGAG,-0.171
2,CGCACCCA,-0.1
3,CAGCACGC,-0.0616
4,GTCTACTA,-0.0894
5,ACAACGGC,0.0852
6,CAAAATAG,-0.0851
7,AGCGACAG,0.0279
8,AGCATGGA,-0.201
9,CATCAAGA,-0.0517
10,AACGTAAC,-0.164
11,AAAAGTCT,-0.193
12,TGAATACA,-0.0137
13,AAGTCGTA,-0.288
14,ATATATCG,0.194
15,ACTCCCTG,-0.139
16,GGGGGCAA,-0.181
17,CAGACCTC,-0.0869
18,CAGGGCAA,-0.101
19,AGTCAACA,-0.216
20,GTACAATA,-0.196
21,TACGGCGA,0.175
22,AGAGCATC,-0.0667
23,GGCGGCGA,0.306
24,CCGAGTAC,0.238
25,CCTATAAC,-0.286

row,Sequence,PBM E-score
1,CACCCGAG,-0.0153
2,ACTTGGCT,-0.241
3,AGCTATTC,-0.0803
4,GGCGCTCA,0.109
5,CTAACAGA,-0.0664
6,GATCTCCC,0.113
7,ACAACAAT,-0.0912
8,ATGCAGTC,-0.252
9,AGCTCCTG,-0.0626
10,AATAAAGG,-0.223
11,TGAGTTAA,-0.24
12,CCCAAGAG,-0.231
13,AGGGCACC,-0.13
14,AGAAGCCG,0.241
15,AGCGACTC,-0.142
16,GTGGTGTA,-0.161
17,GCTAGTCA,-0.197
18,CGCAGAGA,-0.193
19,GGTGAAAA,0.223
20,AATAAATA,0.181
21,AGAGGGGC,-0.281
22,GCTGTAAC,-0.0124
23,AATCACCC,-0.0315
24,AAAGATAC,-0.0541
25,ACCGCCTC,3e-05

row,Sequence,PBM E-score
1,AAGGCAAC,-0.135
2,ACGGGACA,0.167
3,CAGATTTA,0.00436
4,AAGGTCGC,0.191
5,ACAGATCT,-0.152
6,CTATTCAG,-0.197
7,AATTGAGG,-0.0607
8,AAGATCCT,-0.0497
9,GCCCAAGA,-0.231
10,ATATATCA,-0.126
11,GTGCATAA,-0.0366
12,GTGGTCCA,-0.103
13,ACCAAACT,-0.0836
14,ACCATGAA,0.00221
15,AGTTGGCC,-0.107
16,GCTTCCAC,-0.0744
17,CGGGCGCC,0.156
18,ATGCCAGA,-0.22
19,ATTAGATG,0.0723
20,CATTCAAC,-0.216
21,TAAGGGAA,-0.337
22,CATCCGGC,0.354
23,TTAAAGAA,-0.0554
24,CGTTATAC,-0.218
25,CCTCGGCC,0.208

row,Sequence,PBM E-score
1,ACACCCAC,-0.0479
2,CAAATAAG,0.0116
3,AGTAACTA,0.0258
4,TCACTAGA,-0.0693
5,CTTAGTCC,0.118
6,CGTGTGGA,0.0441
7,TAGCCGAA,0.141
8,TACCGCTA,-0.0523
9,AGAACCGC,0.0176
10,AGACACTC,-0.184
11,CAGTAATG,-0.185
12,ATACTCTA,-0.0612
13,GTCGCCGA,0.244
14,AACCCGTC,-0.0153
15,GCAGTAAC,-0.161
16,ACTTCAAC,-0.0372
17,AAAAACTA,-0.0189
18,GAGACACA,-0.0728
19,CAGGGATC,-0.153
20,GACAAATA,0.1
21,AGGACTCG,-0.213
22,TGATTGCA,-0.0457
23,ACCCGCAC,0.159
24,CAGACGGG,-0.0456
25,AGGATTGC,-0.131

row,Sequence,PBM E-score
1,AAATCCCG,0.426
2,CGCCGCTC,0.242
3,ATGATATC,-0.0378
4,ATGAGCCA,-0.195
5,CCCCACGC,-0.208
6,CCCGCCTA,0.166
7,GGATTAAC,0.19
8,AATAAGAC,-0.228
9,CGTCTAGC,-0.186
10,AAGCCCGA,0.27
11,CGAGAATC,0.00888
12,ATCGACCA,-0.326
13,ACACAATC,0.0663
14,TGTCAGAA,-0.26
15,GCTACAAA,-0.0551
16,ACGTTGAA,-0.0117
17,ATGCAACC,-0.0762
18,CACTATTC,-0.0246
19,CATGCACG,-0.181
20,AAGGATGA,-0.272
21,AAGTTCGG,0.28
22,CTGGACCA,-0.213

# From the supplement of paper PMC3334620
